The results in this text go back to the supplement of paper PMC10126150.

Values marked as one replicate rest on one cluster of the flow cell; about a third of the high ones do not repeat.
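Also: ATP exposure 15 min at 22 °C before imaging.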

This data set deals with ATP. The experiment in a line: switch fluorescence ratio, 500 uM ATP over buffer (Cy3 cluster intensity, sum of 5 cycles each) (fold (ratio)); higher = stronger signal-on switching upon ATP binding; sequences stand for … in TCGTCGGCAGCGTCAGATGTGTATAAGAGACAGTTTTTTTTTTTTTTTTTTTTTTTTT…TC. As to conditions: aptamer strand: ATP DNA aptamer (quencher-CACCTGGGGGAGTATTGCGGAGGAAGG + anchor), 100 nM annealed; ATP concentration: 500 uM; one replicate. The procedure, abridged:
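The quencher-labelled ATP aptamer, at 100 nM, was annealed to Cy3-labelled switching-strand clusters on a modified Illumina MiSeq flow-cell. The clusters were imaged in selection buffer, then after 15 min with 500 uM ATP at 22 °C, and this buffer/ATP cycle ran five times with NaOH stripping and re-annealing between runs. Per-cluster fluorescence ratios, summed target-cycle over summed buffer-cycle Cy3 intensity, were averaged per switch-domain sequence. Clusters outside 100-1000 RFU were excluded.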
Turning to CCGGCCTGTG, the switch fluorescence ratio turned out to be 1.13.
Take CCATCGGGCG: the switch fluorescence ratio came out at 0.988.
Consider TTCATGTTTG, for which the switch fluorescence ratio turned out to be 1.01.
Then AGAGTGGGTT, with 1.03; and GATAATCAGC, with 1.
Next, GACCGCGA: 1.87; TTTTACAAGC: 1.02.
Consider GGGTGTCGG, for which the switch fluorescence ratio amounted to 0.987.
Next, AGGGTCCCAC: 0.994; AGTCGGGGG: 0.999; GCTAAAGACG: 1.01.
Next, AGGGGACAGC: 1.01; GCAAAGATGA: 1.
Next, CGTGAACATC: 0.966; CGGAGAGGGC: 1.09; ATACATTAGC: 1.07.
Consider TAGACCACAG, for which the switch fluorescence ratio worked out at 1.
Next, CGAATCATGG: 0.965.
Next, GGTTGAACGC: 0.991; CCCCGTCATG: 2.47; TTAAAGAAG: 1.06.
Then TCAAAGTGGT, with 1.
For the sequence ATATCTGCGT, the switch fluorescence ratio turned out to be 0.994.
Then ACTCGTAGAT, with 0.987.
For GCGTCCGCTC, the switch fluorescence ratio was found to be 1.77.
Next, CTTGTATCTT: 1.01; CGGCTATTGG: 0.948; CGCTCCTACA: 1.09.
Then TTTAGAGCCT, with 1.01; and GTCATCAACT, with 1.01; and AAGTCGAAA, with 1.01.
Then ATCGCGCCGA, with 1.01.
TGCATATAAC: the switch fluorescence ratio was 1.17.
Next, AAATAATAGC: 1.02; GCTTGCACGG: 0.971.
Then GTGAGAGTCC, with 1.11.
Then ACAACTGGGA, with 1.04; and AGAACGGTT, with 1.04; and ATAGAAATCG, with 0.932.
As for TCATTAGGGC, the switch fluorescence ratio stood at 0.957.
Next, TCATATCGTG: 0.98.
Then CAGAGGTTTT, with 1.03; and ATAACGCTTG, with 1.01; and AAACGGTGGT, with 0.986.
Then GAGCGCCCTC, with 1.06; and CCCTGTCTTA, with 1.03; and GACTGCGACC, with 1.29.
On to CATATACCCG, for which the switch fluorescence ratio stood at 0.974.
Then CCCGGGGTAG, with 1.03; and GGTGCAACTA, with 0.991; and AGTCGCCCGT, with 0.996.
Next, AAATGTGTTG: 1.03; ACATTCCGTA: 1.06; CTTAACAAGG: 0.986.
Next, TCTATAGGGA: 1.03; ACCGAATGCA: 1.25; CGTAAAAAAA: 1.08.
Regarding GACATTCCTT, the switch fluorescence ratio is 1.13.
For TAATTAACTA, the switch fluorescence ratio came to 1.02.
Next, TTCTATACTT: 1.05.
Next, GCTGGACCCA: 0.974; TCAGGAGGGA: 1.09; GAAAATATTC: 1.03.
Then AGCGCACTAG, with 1.16; and CCAATACTAT, with 1.31.
As to GGTGCGTCAG, the switch fluorescence ratio came to 0.976.
On to ATGGAGCGGT, for which the switch fluorescence ratio stood at 1.09.
Next, AGTGTGTTTC: 1; ATGAGGTCCT: 0.998.
Then GGTATTTCTT, with 0.974.
Next, CTAATAATCT: 1.03; ATACAGTGC: 1.04; GGGTTGACC: 0.997.
In the case of GTGTAATGAA, the switch fluorescence ratio was 1.03.
Next, CTACATCCTG: 0.948; AGAAGGGT: 0.975; GATTACTTGA: 1.05.
Then GATGGCGGAC, with 1.05.
